The campaign covered roughly 48,000 compounds. About 120 (0.25%) were called active. Another 4% or so got no clear call; they are omitted. Calls come from the whole dose curve; as a rule, active = well fitted activation curve with a large enough effect; inconclusive = small, poorly fitted or top-dose-only effect, or another doubt; inactive = no such curve, though single readings can be large or run the other way. The entries are a selection whose mix differs from that of the whole data set. Where no call is shown, the source filed none.
Assay: Primary qHTS for Identification of Small Molecule Activators of Huntingtin-Antisense Promoter Activity; note: nearly all actives have a fitted effect of over 55% in size
Details: HEK293 HTT-AS promoter firefly luciferase reporter, 24 h; activity change, positive = activation: at 57.5 µM (top of the series), percent change from vehicle, -100% = no light
How it was run: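 HEK293 Fluc reporter, 2,500 cells/well, 24 h pre-culture; cpds up to 57.5 uM final, 24 h 37 degrees C; Dual-Glo, 10 min RT; normalized vehicle = 0%, zero RLU = -100%.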
For `CCc1nnc(NC(=O)c2nc(S(=O)(=O)Cc3ccc(C)cc3)ncc2Cl)s1`, the “activity change, positive = activation” value was inactive: -94.5%. For `CCOC(=O)CC(NC(=O)CCc1c(C)nc2c(c(C)nn2-c2ccc(C)c(C)c2)c1C)c1ccc(C)cc1` (configuration not stated), the “activity change, positive = activation” value was inactive: -19.4%. Work on `COc1ccc(-c2c3c(=O)n(C)c(=O)n(C)c3c3n2-c2ccccc2NC3c2ccc(OC)cc2)cc1` (configuration not stated) yielded an activity change, positive = activation of 0.495%. With `COc1ccc(C2NC(=O)N(C)C3=C2C(=O)N(c2cccc(Cl)c2)C3)cc1` (configuration not stated) the “activity change, positive = activation” value was inactive: -27.7%. In the case of `CC(=O)c1ccc(N2CCN(c3ccc(NC(=O)c4ccc(F)cc4)cc3C(=O)O)CC2)cc1`, the “activity change, positive = activation” value is reported as inactive: -14.4%. `CCc1ccccc1NC(=O)CN(Cc1ccccc1)S(=O)(=O)c1ccc(Br)cc1` showed an activity change, positive = activation of -26.3%. In the case of `O=C(Nc1cc(Cl)cc(Cl)c1)c1ccc(F)c(S(=O)(=O)N2CCc3ccccc32)c1`, the “activity change, positive = activation” value is reported as inactive: -29%. `CC(C)OCCCNC(=O)c1ccc2c(c1)NC(=O)c1ccccc1S2` showed an activity change, positive = activation of -36.9%. For `COc1ccc(CCN2CCC(Nc3nc4ccccc4n3Cc3ccc(F)cc3)CC2)cc1`, the “activity change, positive = activation” value was inactive: -23.2%. With `COCc1nc2cccnc2n1C1CCN(S(=O)(=O)N(C)C)CC1` the activity change, positive = activation was 2.56%. Compound `CCOC(=O)c1ccccc1NC(=O)CSc1ncc(CO)n1Cc1ccc(C)cc1` has an activity change, positive = activation of 5.11%. In the case of `COc1ccccc1Nc1cc(C)nc2nc(-c3ccccc3)nn12`, the “activity change, positive = activation” value is reported as inactive: -9.7%. Work on `CCCCOC(=O)c1ccc(NS(=O)(=O)c2c(C)nc3scc(C)n3c2=O)cc1` yielded an activity change, positive = activation of -38.5%. `CC(=O)c1cc(-c2ccc(F)cc2)n(CCC(=O)NCc2ccccc2C)c1C` showed an activity change, positive = activation of -8.85%. Compound `Cc1ccc(N2CCN(c3nc4ccc(C)cc4n4nnnc34)CC2)c(C)c1` has an activity change, positive = activation of 5.06%. In the case of `COc1cc2c(-c3ccccc3C)nc3c(c(C)nn3-c3ccccc3)c2cc1OC`, the activity change, positive = activation is reported as -2.95%. In the case of `CCc1ccc(NC(=O)CC2C(=O)N(c3cccc(C)c3)C(=O)N2Cc2cccs2)cc1` (configuration not stated), the activity change, positive = activation is reported as -15.1%. Compound `CCN(C(=O)Cn1c(C(=O)OC)cc2oc3ccccc3c21)c1cccc(C)c1` has an activity change, positive = activation of -23.2%. Compound `COC(=O)c1ccc(NC(=O)CC2C(=O)N(c3ccc(Cl)cc3)C(=O)N2Cc2cccs2)cc1` (configuration not stated) has an activity change, positive = activation of -30.1%. In the case of `O=C(NCc1ccccc1)c1cc(-c2cccc(Cl)c2)on1`, the activity change, positive = activation is reported as 24.1%. With `CCCc1cc(=O)[nH]c(Nc2cc(C)ccc2OC)n1` the activity change, positive = activation was -20.4%. Compound `CCc1ccc(NC(=O)CC2C(=O)N(c3cccc(OC)c3)C(=O)N2Cc2ccc(F)cc2)cc1` (configuration not stated) has an activity change, positive = activation of -14.9%. Compound `CCc1ccc(NC(=O)CC2C(=O)N(c3cccc(C)c3)C(=O)N2Cc2ccc(F)cc2)cc1` (configuration not stated) has an activity change, positive = activation of -27.1%. Compound `Cc1ccc(-c2cc(C(=O)Nc3ccc(SC(F)F)cc3)no2)cc1F` has an activity change, positive = activation of -11.9%. In the case of `CCCOc1ccc(NC(=O)CC2C(=O)N(c3ccccc3)C(=O)N2Cc2ccco2)cc1` (configuration not stated), the activity change, positive = activation is reported as 1.05%. Compound `Cc1ccc(S(=O)(=O)Nc2cccc(-c3ccc(N4CCC(C)CC4)nn3)c2)s1` has an activity change, positive = activation of 57.1%. For `CCc1nn(CC(=O)NC2CC2)c(=O)c2cc3c(OC)cccc3n12`, the activity change, positive = activation was 1.28%. With `COc1ccc(-c2cc(C(=O)Nc3c(C)n(C)n(-c4ccccc4)c3=O)no2)cc1OC` the activity change, positive = activation was -4.37%. In the case of `COc1cc(NC(=O)CCCOc2cc(=O)n(C)c3ccccc23)cc(OC)c1OC`, the activity change, positive = activation is reported as inactive: -14.2% [at 11.5 µM, percent change from vehicle, -100% = no light]. With `CC(C)(O)CC[C@@H](O)[C@](C)(O)[C@H]1CC[C@@]2(O)C3=CC(=O)[C@@H]4C[C@@H](O)[C@@H](O)C[C@]4(C)[C@@H]3CC[C@]12C` the “activity change, positive = activation” value was inactive: -37.5%. With `COc1cc(C2C(=O)N(C3CCCCC3)CC(=O)N2C2CCCCC2)ccc1OC(C)C` (configuration not stated) the activity change, positive = activation was -4.11%. Compound `CCc1ccccc1NC(=O)c1noc2c1CC(C(C)(C)C)CC2` (configuration not stated) has an activity change, positive = activation of 4.56%. In the case of `CCOc1ccc(NC(=O)CC2C(=O)N(c3cccc(C)c3)C(=O)N2Cc2cccs2)cc1` (configuration not stated), the activity change, positive = activation is reported as -8.84%. In the case of `CCCCN1CC(c2nc3ccccc3n2CCCCOc2cccc(C)c2C)CC1=O` (configuration not stated), the “activity change, positive = activation” value is reported as inactive: -38.1%. For `COc1cc(NC(=O)CCc2c(C)nn(-c3ccc(N4CCCCC4)nn3)c2C)cc(OC)c1OC`, the activity change, positive = activation was 68.3%. With `COc1ccc(OC)c(CNc2nc3ccc(C)cc3n3nnnc23)c1` the activity change, positive = activation was -15.2%. Work on `COc1cccc(OCCn2c(-c3ccc(Cl)cc3)nc3ccccc3c2=O)c1` yielded an activity change, positive = activation of 2.39%. `CCOC(=O)c1c(NC(=O)C(C)Oc2ccccc2F)sc(C(C)=O)c1C` (configuration not stated) gave an activity change, positive = activation of -6.82%. In the case of `CCc1ccc(NC(=O)c2ccc(CNS(=O)(=O)c3ccc4c(c3)C(C)(C)C(=O)N4C)cc2)cc1`, the “activity change, positive = activation” value is reported as inactive: -15.7%. In the case of `Cn1c(=O)n(C)c2cc(NS(=O)(=O)c3ccc(Cl)cc3)c(NCc3ccccc3)cc21`, the activity change, positive = activation is reported as 35.1%. Compound `Cc1cccc(N2CCN(C(=O)C3CCN(S(=O)(=O)Cc4ccccc4)CC3)CC2)c1C` has an activity change, positive = activation of -6.72%. Work on `CCCCN(CCCC)S(=O)(=O)c1ccc(NC(=O)c2c(-c3ccccc3)noc2C)cc1` yielded an activity change, positive = activation of -26.2%. Work on `Cc1cc(C)cc(OCCOCCn2c(-c3ccc(Cl)cc3)nc3ccccc3c2=O)c1` yielded an activity change, positive = activation of 13.8%. With `O=C1C(=O)N(C2CCN(C(=O)c3ccc(F)cc3)CC2)CCN1Cc1ccc(F)cc1` the activity change, positive = activation was -3.14%. Compound `CCc1nnc2c3ccccc3nc(Nc3ccc(F)cc3C)n12` has an activity change, positive = activation of -9.92%. `N=c1n(CCO)c2ccccc2n1CCOc1ccc(F)cc1` showed an activity change, positive = activation of -0.299%. In the case of `COC(=O)c1c(NC(=O)CCCOc2cccc(C)c2)sc2c1CCC(C)C2` (configuration not stated), the activity change, positive = activation is reported as -8.85%.
